Measurements taken from PMC4336329 (PLoS ONE, 2015).
The campaign covered roughly 310,000 compounds. About 2,200 (0.71%) showed an effect of 50% or more. The effect is printed as a negative number. The list shows a part of the results.

target: human ether-à-go-go-related gene (hERG) potassium channel (human, UniProt Q12809); assay: primary screen, population patch clamp on CHO cells stably expressing hERG
Sequence (Q12809 whole entry, looked up): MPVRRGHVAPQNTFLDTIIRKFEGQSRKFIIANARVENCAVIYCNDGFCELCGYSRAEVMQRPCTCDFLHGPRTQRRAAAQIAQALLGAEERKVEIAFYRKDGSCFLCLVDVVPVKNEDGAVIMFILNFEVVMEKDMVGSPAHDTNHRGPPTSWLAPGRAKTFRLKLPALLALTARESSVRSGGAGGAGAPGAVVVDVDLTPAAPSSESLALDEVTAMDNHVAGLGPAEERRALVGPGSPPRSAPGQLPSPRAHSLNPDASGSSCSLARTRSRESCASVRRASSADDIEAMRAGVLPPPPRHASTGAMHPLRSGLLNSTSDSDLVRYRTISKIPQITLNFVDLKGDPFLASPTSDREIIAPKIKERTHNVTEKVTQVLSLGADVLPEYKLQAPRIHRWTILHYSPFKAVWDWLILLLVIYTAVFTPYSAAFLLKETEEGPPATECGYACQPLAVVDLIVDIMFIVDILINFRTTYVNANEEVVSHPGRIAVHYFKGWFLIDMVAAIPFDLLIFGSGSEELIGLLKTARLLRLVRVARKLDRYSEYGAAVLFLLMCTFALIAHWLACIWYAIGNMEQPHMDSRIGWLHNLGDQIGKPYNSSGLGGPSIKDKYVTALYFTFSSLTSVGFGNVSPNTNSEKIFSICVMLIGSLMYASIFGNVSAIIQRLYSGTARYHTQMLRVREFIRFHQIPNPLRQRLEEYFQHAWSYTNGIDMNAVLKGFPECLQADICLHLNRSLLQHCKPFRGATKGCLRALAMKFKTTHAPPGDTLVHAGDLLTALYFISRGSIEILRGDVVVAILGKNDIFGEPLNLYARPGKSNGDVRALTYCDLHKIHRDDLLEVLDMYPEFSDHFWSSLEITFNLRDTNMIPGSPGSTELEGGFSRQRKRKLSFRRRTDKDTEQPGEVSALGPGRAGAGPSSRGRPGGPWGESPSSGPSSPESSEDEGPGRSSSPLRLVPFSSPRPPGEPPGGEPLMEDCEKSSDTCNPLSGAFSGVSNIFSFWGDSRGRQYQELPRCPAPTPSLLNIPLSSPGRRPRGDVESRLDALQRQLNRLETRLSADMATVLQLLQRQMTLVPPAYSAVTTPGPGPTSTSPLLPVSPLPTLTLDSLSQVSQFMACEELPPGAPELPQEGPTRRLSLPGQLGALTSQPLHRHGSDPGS

| SMILES | hERG current change (%, negative = inhibition) at 1uM [%] |
| --- | --- |
| CCOC(=O)c1ccc(-n2cncn2)nc1 | 1.14 |
| CC(=O)Oc1c(C)cc(Cl)cc1C(=O)Nc1ccc([N+](=O)[O-])cc1Cl | 17.9 |
| CCc1ccc(-c2csc(NC(=O)C3CCCO3)c2C(=O)OC(C)C)cc1 (centres unmarked) | 12.1 |
| C/C(=C\c1ccccc1)C(=O)NCc1ccco1 | 21 |
| CCOC(=O)CC1(c2ccc(OC)c(OC)c2)C(=O)c2ccccc2C1=O | 10.7 |
| CCOC(=O)Cn1c2c(c(=N)c3c1CCC3)CCC2.Cl | 10.2 |
| CC1CCCCN1C(=O)CSc1nc(N)nc(N)n1 (centres unmarked) | 19.9 |
| O=C(COc1cccc(Oc2ccccc2)c1)Nc1ncccn1 | 15.3 |
| CSc1nnc(NC(=O)c2cc(=O)c3cc(C)cc(C)c3o2)s1 | 18.5 |
| CS(=O)(=O)c1ccc(NC(=O)c2ccc3c(c2)S(=O)(=O)N=C2CCCCCN23)cc1 | 5.48 |
| Nn1cnc2scc(-c3ccco3)c2c1=O | 14.7 |
| CCN1CCN(Cc2ccc(NC(=O)c3cc(NC(=O)N4CCNC4=O)cc(OC)c3)cc2C(F)(F)F)CC1 | 12 |
| Nc1ccc(-n2nc3ccccc3n2)cc1 | 8.64 |
| CC(=O)N1CC2([N+](=O)[O-])CN(C(C)=O)CC([N+](=O)[O-])(C1)C2(C)C | 5.81 |
| Cc1cc(Nc2ccc(F)cc2C)n2nc(C)nc2n1 | 1.33 |
| CCOC(=O)N1CCC(NC(=O)CSc2cc(=O)n(C)c3ccccc23)CC1 | -0.47 |
| CC1CCCCN1S(=O)(=O)c1ccc(S(=O)(=O)N(Cc2ccccc2)Cc2ccco2)cc1 (centres unmarked) | 7.02 |
| CC1Cc2cccc3c(O)c(C(=O)c4nn[nH]n4)c(=O)n1c23 (centres unmarked) | 13.5 |
| Cc1ccc(S(=O)(=O)NCC(=O)N(CC(=O)NCc2ccco2)Cc2ccc3c(c2)OCO3)cc1 | -5.71 |

| SMILES | hERG current change (%, negative = inhibition) at 1uM [%] |
| --- | --- |
| c1ccc2c(CN3CCCCCCC3)c[nH]c2c1 | 0.417 |
| O=S(=O)(c1ccc(NC(=S)NCCC(c2ccccc2)c2ccccc2)cc1)N1CCOCC1 | 8.57 |
| Cc1nnc(SCC(=O)Nc2sc3c(c2C(N)=O)CCCC3)[nH]c1=O | 10.4 |
| N#Cc1cc(-c2ccccc2)nnc1Sc1ccc(Cl)cc1 | -3.49 |
| CC(=O)Nc1ccc([N+](=O)[O-])cn1 | 18.6 |
| COCCCN1C(=O)C(O)=C(C(C)=O)C1c1ccccn1.Cl (centres unmarked) | 8.91 |
| O=C1/C(=C/c2cccs2)NC(=S)N1C1CC1 | -1.49 |
| CCc1ccccc1OCc1nc2ccc(S(=O)(=O)N3CCOCC3)cc2[nH]1 | -15 |
| CC(=O)/C(=C\Nc1ccc(OCc2ccccc2)cc1)c1ccccc1 | 6.32 |
| COc1ccccc1OCCNC(=O)c1ccc(Br)cc1 | 10.6 |
| CC1=CC(C)[C@H](/C=N/n2c(=O)[nH]c3c([nH]c4ccc(C)cc43)c2=O)C(C)C1 (some centres unmarked) | -5.91 |
| Cc1cccc(C(=O)NCc2nnc(SCC(=O)N3CCN(c4ccccc4)CC3)n2C)c1 | 11.9 |
| CCN(c1ccc(OC)cc1)S(=O)(=O)c1nnc(NC(=O)COc2ccc(C)cc2)s1 | 12.4 |
| CCOc1ccc2[nH]c(C)c(CN3CCOCC3)c(=O)c2c1 | 11.9 |
| CCOC(=O)C1CCCN(C(=O)C2CCN(c3nnc(-n4cccc4)s3)CC2)C1 (centres unmarked) | -8.73 |
| COc1ccc(/C=N/NC(=O)c2nc(-c3ccccc3)n(-c3ccccc3)n2)c(O)c1 | 8.28 |
| COc1cc(OC)c(C(=O)NCCCN2CCOCC2)cc1OC | 11 |
| CCN(CC)CCN1C(=O)C(=O)/C(=C(/O)c2c(C)[nH]c(C(=O)OC)c2C)C1c1cccs1 (centres unmarked) | 4.27 |
| COc1ccc(NC(=O)C2CCCN(c3cnccn3)C2)c(OC)c1 (centres unmarked) | 28.3 |

| SMILES | hERG current change (%, negative = inhibition) at 1uM [%] |
| --- | --- |
| CCn1c(SCC(=O)Nc2ccc(N(C)C)cc2)nnc1C1CC1 | 12.9 |
| O=C(CCCOc1ccccc1)Nc1ccc(Br)cc1 | 11.3 |
| Br.Cn1c(CS/C(N)=N/N=C/c2ccccc2)c(Br)c(=O)n1-c1ccccc1 | 5.39 |
| Cc1ccc2nc(NC(=O)C3CCN(c4ncnc5sc(C)c(C)c45)CC3)sc2c1 | 6.69 |
| COc1ccc(N(C(=O)C2CCCCC2)C2C=CS(=O)(=O)C2)c(OC)c1 (centres unmarked) | 5.57 |
| COc1ccc(C(C)(C)C)cc1NC(=O)c1ccc[n+]([O-])c1 | 21.2 |
| CCc1cc(=O)oc2c(C)c(OCC(=O)NCc3ccccn3)ccc12 | 19.4 |
| CCOC(=O)c1c(NC(=S)N2CCN(C)CC2)sc(C)c1-c1ccccc1 | -13.1 |
| Cc1nnc(C)n1/N=C/c1ccc2c(c1)OCCO2 | 11.5 |
| Cc1cc(C(C)(C)C)cc(S(=O)(=O)NCC(=O)O)c1C | 7.74 |
| CCN(CC)S(=O)(=O)c1ccc2oc(SCC(=O)Nc3cc(C)on3)nc2c1 | 3.32 |
| COc1cc(/C=C(\C#N)C(=O)Nc2ccc3c(c2)OCCO3)ccc1O | 8.1 |
| O=C(COC(=O)CC12CC3CC(CC(C3)C1)C2)Nc1ncc(Cl)cc1Cl | -7.39 |
| O=C(/C=C/c1ccccc1[N+](=O)[O-])Oc1ccccc1 | 16.8 |
| O=C(Nc1ccc2nc3n(c(=O)c2c1)CCCCC3)C(=O)N1CCN(c2ccccc2)CC1 | 6.91 |
| Cc1ccc(Nc2nc(-c3sc(NC(=O)c4ccco4)nc3C)cs2)cc1 | 2.13 |
| Cc1ccc(Nc2c([N+](=O)[O-])c(=O)oc3ccccc23)cc1 | 8.9 |
| O=C(COC(=O)c1ccccc1NC(=O)c1ccco1)Nc1ccc2c(c1)OCO2 | 0.0019 |
